Laboratory results as given in PubChem BioAssay AID493208 (National Center for Advancing Translational Sciences (NCATS), 2011).
The whole screen tested about 44,000 compounds, of which about 340 (0.77%) were called active. Not shown: some 5% with an inconclusive outcome. Calls come from the whole dose curve; as a rule, active = well fitted inhibition curve with a large enough effect; inconclusive = small, poorly fitted or top-dose-only effect; inactive = flat fitted curve, though single readings scatter. The list shows a part of the results.

assay: Acumen qHTS Assay for Inhibitors of the mTORC1 Signaling Pathway in MEF (Tsc2-/-, p53-/-) Cells: Sytravon; settings: phospho-rpS6 immunofluorescence/PI, 24 h; series mostly up to 38.3 µM; activity change, negative = inhibition: at the top concentration;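 note: plate controls were DMSO for no effect and rapamycin for full effect; nearly all actives have a fitted effect of over 50% in size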
Summary of the method: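 Tsc2-/-, p53-/- MEFs (empty-vector stable line) in DMEM + 10% FBS were treated with compounds 24 h at 37 degree Celsius, fixed, and immunostained for phospho-rpS6 (Alexa-488) with propidium iodide counterstain. Laser-scanning cytometry gave % positive cells, normalized against 7.5 nM rapamycin and DMSO.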

Activity change, negative = inhibition, inactive:
Cc1ccc2c(=O)cc(C(=O)Nc3ccc(S(=O)(=O)N4CCCCC4)cc3)oc2c1 -3.37%, COc1ccc(NC(=O)C2CCCN(c3cnccn3)C2)c(OC)c1 (configuration not stated) -3.38%, CCC(Cc1ccccc1)NC(=O)CCS(=O)(=O)c1cc2c(cc1Cl)NC(=O)CO2 (configuration not stated) 7.59%, CCOc1ccc(CNC(=O)Nc2ccc3c(c2)N(C)C(=O)c2ccccc2S3)cc1 -27.8%, Cc1ccc(NC(=O)CSc2cn(CC(=O)N3CCOCC3)c3ccccc23)cc1Cl -6%, CCC(C)n1c(=N)c(C(=O)NC2CCCC2)cc2c(=O)n3ccccc3nc21 (configuration not stated) -2.02%, COc1ccc2sc(N(Cc3cccnc3)C(=O)c3cccs3)nc2c1 -9.7%, Cn1c(=O)c2nc3ccc(NC(=O)C(F)(F)F)cc3nc2n(C)c1=O -5.7%, Cc1ccc2c(c1)C(c1ccccc1)N(C(=O)c1ccc(S(=O)(=O)N3CCCC3)cc1)CC(=O)N2 (configuration not stated) -0.308%, Cc1ccc(NC(=O)CN2C(=O)CSc3ccc(S(=O)(=O)N(C)C)cc32)c(C)c1 3.39%, O=S(=O)(c1ccccc1)c1nnn2c1nc(N1CCN(c3ccccc3)CC1)c1cc(Cl)ccc12 0.117%, COc1ccc2sc(N(Cc3cccnc3)C(=O)C3COc4ccccc4O3)nc2c1 (configuration not stated) -6.44%, Cc1ccc(-n2ncc3c(NC4CCCC4)ncnc32)cc1 4.94%, CCOC(=O)/C(C#N)=C/c1ccc(-c2ccccc2)o1 2.08%, O=C(Cn1cc2c(n1)CCCC2)Nc1cc(C(F)(F)F)ccc1Cl -12.5%, CCCn1cc(S(=O)(=O)c2ccccc2)c(=O)c2cc(F)c(N3CCCCCC3)cc21 -19.8%, Cc1nc(SCc2ccccc2Cl)c(C#N)c(C)c1C -19.6%, Cc1cc(C)cc(NC(=O)c2sc3nc4n(c(=O)c3c2C)N=C(c2ccc(F)cc2)CS4)c1 4.66%, O=C(Nc1ccc2nc(SCCOc3ccccc3Cl)sc2c1)c1ccco1 -4.5%, COc1cccc(-c2nn(C)c3sc(C(=O)NCCc4cccc(C)c4)cc23)c1 -4.33%, COc1ccc(C)cc1NC(=O)c1c(C(=O)Nc2cccc(C)c2C)sc2nc(C)cc(=O)n12 3.79%, Cc1nnc(N2CCN(c3cccc(Cl)c3)CC2)c2c1nnn2Cc1ccc(F)cc1 -0.589%, CCOC(=O)C1CCCN(C(=O)Cn2ncc3c(C)n(Cc4ccc(F)cc4)c(C)c3c2=O)C1 (configuration not stated) -2.93%, CCOc1ccc(OCC)c(NC(=O)c2cnn(-c3ccc(F)cc3)c2C2CCN(C(=O)OC(C)(C)C)CC2)c1 0.318%, CCCNC(=O)Cn1ncc2c3ccccc3n(CCC)c2c1=O -2.26%, CCOc1ccc(-n2c(C)nc3cc(C(=O)NCc4ccc(C)cc4)ccc32)cc1 7.05%, CCOc1ccc2c(c1)c(=O)c(C(=O)c1ccc3c(c1)OCO3)cn2Cc1cccc(F)c1 -1.06%, COc1ccc(-n2ccnc(NCc3cccs3)c2=O)cc1 -2.76%, COc1ccc(-c2ccc(-c3noc(-c4cc(OC)cc(OC)c4)n3)c(OC)n2)cc1 -11.3%, CCn1c(=O)cc(SCC(=O)Nc2cc(Cl)ccc2OC)c2ccccc21 -11.7%, CCOc1ccc(-c2nnc(SCC(=O)Oc3ccccc3)o2)cc1 -2.18%, Cc1ccc(C(=O)Nc2nnc(S(=O)(=O)N(C)Cc3ccc(F)cc3)s2)cc1 -5.29%, O=c1c2c3c(sc2nnn1Cc1ccc(F)cc1)CCCC3 -0.763%, CC1CCCN(c2nc(-c3ccccc3O)nc3ccccc23)C1 (configuration not stated) -5.62%, CCc1ccccc1NC(=O)Cn1nnc(C(=O)Nc2ccc(OC)c(OC)c2)c1N -12.1%, Cc1cccc(NC(=O)c2oc3ccc(S(=O)(=O)N(C)C4CCCCC4)cc3c2C)c1C -10.7%, CCOC(=O)c1ccccc1NC(=O)c1nn(-c2ccc(C)cc2)c(=O)n(C)c1=O -3.84%, CCc1ccc(S(=O)(=O)N2CCN(c3ccc(Cl)c(Cl)c3)CC2)cc1 0.231%, COc1c(Cl)cc(Cl)cc1/C=C(\C#N)c1nc(-c2ccc(Cl)cc2)cs1 -20.8%, CCOCCCNC(=O)Cn1cc2c(n1)-c1c(oc(C(=O)N3CCCC3)c1C)CC2 0.316%, CCc1ccccc1NC(=O)c1cnn(-c2ccc(F)cc2)c1C1CCNCC1 -25.7%, COc1ccc(-c2cc(-c3ccc4c(c3)NC(=O)CO4)nc3c2COc2ccc(C)cc2-3)cc1 -0.641%, COc1ccc(-n2ncc(C(=O)NCCCN3CCCCC3)c2C2CCN(C(=O)OC(C)(C)C)CC2)cc1 -6.29%, Cc1c(NC(=O)C(F)(F)F)ccc2nc3c(=O)n(C)c(=O)n(C)c3nc12 -21.8%, Cc1cccc(OCCOCCn2c(-c3ccc(Cl)cc3)nc3ccccc3c2=O)c1C -25.2%, Cc1ccccc1NC(=O)c1ccc(F)c(S(=O)(=O)N2CCc3ccccc3C2)c1 13.1%, COC(=O)Cn1ccc2cc(S(=O)(=O)N3CCCCC3)ccc21 -2.55%, Cc1cc(C)c(S(=O)(=O)N2CCC(N3CCN(Cc4ccc(F)cc4)C(=O)C3=O)CC2)c(C)c1 0%, CC(C)c1ccc(NC(=O)c2cnn3c(C(F)F)cc(-c4ccccc4)nc23)cc1 -2.02%, Cc1ccc(C(C)C)c(OCCCn2c(=O)oc3ccc(C)cc32)c1 -12.2%, Cc1ccc(C)c(N2CCN(C(=O)C3CCC(CNS(=O)(=O)c4ccc(Br)s4)CC3)CC2)c1 (configuration not stated) -1.32%, O=C(O)COc1ccccc1C1Nc2ccccc2-c2nnc(SCc3ccc(Cl)cc3)nc2O1 (configuration not stated) -2.54%, COc1cccc(NC(=O)Cn2c(=O)n(CCCCC(=O)NCc3ccc4c(c3)OCO4)c(=O)c3ccccc32)c1 -12%, CCCS(=O)(=O)N1CC(=O)N(c2cc(C)cc(C)c2)C(C)(C(=O)NC2CCCCCC2)C1 (configuration not stated) -0.605%, N#Cc1ccc(NC(=O)c2ccc3c(c2)nnn3C2CCCC2)cc1 11%, CCOC(=O)N1CCC(NC(=O)c2cnn(-c3ccc(C)cc3)c2C2CCN(C(=O)OC(C)(C)C)CC2)CC1 -2.28%, COc1ccc(Nc2oc(-c3ccc(COc4ccccc4)o3)nc2C#N)cc1 -7.26%, CCOc1ccccc1C(=O)Nc1cc(-c2nc3cccnc3s2)ccc1C -3.15%, Oc1cccc(Nc2cc(-c3ccccc3)ncn2)c1 -0.775%, CC(C)(C)C(=O)Nc1ccc2nc(SCCOc3ccccc3Cl)sc2c1 -23.1%, Cc1cccc(NC(=O)CN2C(=O)CC(c3ccccc3)Sc3ccccc32)c1 (configuration not stated) -3.12%, Cc1ccccc1NC(=O)Cn1nnc(C(=O)NCc2cccs2)c1N -9.37%, Cc1ccc(NC(=O)CCc2c(C)nc3ncnn3c2C)cc1Cl -11.8%, Cc1ccc(CSc2nc3cc(C(=O)NC4CCCC4)ccc3c(=O)n2Cc2ccccc2)cc1 0.664%, CCc1ccc(NS(=O)(=O)c2ccc(NC(=O)N3CCCC3)cc2)cc1 1.45%, Cc1ccc(C)c(CSc2cn(CCNC(=O)c3cccs3)c3ccccc23)c1 6.55%, CCc1ccc(NC(=O)Cn2nnc(C(=O)Nc3ccc(F)cc3)c2N)cc1 1.88%, O=C(Nc1cccc(O)c1)c1cc(-c2ccccc2F)no1 -1.13%, CC(CNC(=O)c1csc2c1CCCCC2)c1ccccc1 (configuration not stated) -9.01%, COc1ccc(CCN2C(=O)N(c3ccc(C)cc3)C(=O)C2CC(=O)Nc2ccc(OC)cc2)cc1 (configuration not stated) -0.536%, O=C(NCc1cccc(Cl)c1)c1ccc2c(Cl)c3c(nc2c1)CCCC3 -13.4%, CCOC(=O)C1CCCN(C(=O)Cn2ncc3c4ccccc4n(C)c3c2=O)C1 (configuration not stated) -1.97%, COc1cc(NC(=O)c2cc(S(=O)(=O)N3CCC(C)CC3)cn2C)cc(OC)c1OC -6.04%, COc1cc(O)ccc1-c1nc2cc(C)ccn2c1Nc1ccccc1C 0.291%, O=C(CSc1ncc(CO)n1Cc1ccc(F)cc1)NCc1ccco1 -3.03%, Cc1cccc2c(=O)cc(CSc3ccccc3NC(=O)c3cccc(Br)c3)[nH]c12 0.295%, CCc1ccc(S(=O)(=O)Nc2cccc(-c3ccc(OC)nn3)c2)s1 -0.892%, COc1ccc(NC(=O)CSc2nc3nc(C)cc(C)n3n2)cc1OC 12.8%, CCOc1ccccc1NC(=O)NCc1noc2ccc(C)cc12 -16.2%, COc1cc(C(=O)NCC(c2ccc3c(c2)OCO3)N2CCN(C)CC2)cc(OC)c1OC (configuration not stated) -15.4%, COc1cccc2c1cc1c(=O)n(CC(=O)NCc3ccc(N(C)C)cc3)nc(C)n12 3.66%, CC(C)c1ccc2oc(-c3cc(NC(=O)c4cccnc4)ccc3Cl)nc2c1 -13.2%, Cc1ccc(N2CC(C(=O)NCc3nnnn3-c3ccc(C)c(C)c3)CC2=O)cc1C (configuration not stated) 1.86%, O=c1n(Cc2ccc(Cl)cc2)nc2n1-c1ccccc1OC2 -27.4%, COc1cccc(NC(=O)c2sc3nc(C)c(C(=O)Nc4ccc(C)cc4C)c(-c4ccc(C)o4)c3c2N)c1 -14.8%, O=C(CSc1nc2ccccc2nc1Cc1ccc(Cl)cc1)N1CCN(c2ccccc2F)CC1 -4.23%, Cc1ccccc1OCC(=O)Nc1ccc2nc(SCCOc3ccccc3)sc2c1 0.0686%, Cc1ccc(C)c(N2CCN(C(=O)CCCCCn3c(=O)[nH]c4ccccc4c3=O)CC2)c1 -5.3%, Cc1ccc(C)c(Cn2c(SCC(=O)N(C)Cc3ccccc3)nc3ccccc32)c1 8.56%, CCOc1ccc(-c2cc(C(=O)N3CCN(c4cccc(C)c4)C(C)C3)c3ccccc3n2)cc1 (configuration not stated) 0%, CCc1ccccc1NC(=O)C(=O)NCC(c1cccnc1)N1CCc2ccccc21 (configuration not stated) 13%, Cc1ccc(-c2nnc(Nc3ccc(S(N)(=O)=O)cc3)c3ccccc23)cc1S(=O)(=O)N1CCOCC1 12.4%, CC(NC(=O)c1cccc(NC(=O)c2nsc3ccccc23)c1)c1ccccc1 (configuration not stated) 0%, COc1ccc2c(c1)Cc1sc(NC(=O)c3cccc(F)c3)nc1-2 -1.95%, CCCC(=O)Nc1cc(-c2nc3cccnc3s2)ccc1C -10.9%, CCc1cccc(NC(c2nnc(-c3ccccc3)o2)c2ccc(F)cc2Cl)c1 (configuration not stated) -29.7%, CCOC(=O)c1ccc(NC(=O)C2CC(=O)N(c3ccc(C(C)C)cc3)C2)cc1 (configuration not stated) 1.19%
